Measured values as given in ChEMBL document CHEMBL4888484, “Replenishing the malaria drug discovery pipeline: Screening and hit evaluation of the MMV Hit Generation Library 1 (HGL1) against asexual blood stage Plasmodium falciparum ,using a nano luciferase reporter read-out” (2022).
Hit rate of the full screen: of about 150,000 compounds, about 540 (0.36%) showed an effect of 50% or more. Some of the results follow.

These compounds were tested on Plasmodium falciparum (assay: Primary screen in NF54 nanoGlo assay, in single point, at 2uM, 72h; a lower Z score goes with more inhibition). Conditions: timepoint 72 hour.
Assay type: functional, Erythrocyte

| Structure (SMILES) | % Inhibition | Z score |
| --- | --- | --- |
| O=S1(=O)C[C@@H]2[C@H](C1)N(c1ncccn1)CCN2Cc1ccc2occc2c1 | 2% | -0.3 |
| CC(=O)N[C@@H]1C[C@H](Cc2ccccc2)O[C@H](c2nccs2)C1 | -6% | 0.66 |
| O=C(c1cc(O)cc(O)c1)N1CCN(CC(F)(F)C(F)F)CC1 | -34% | 5.4 |
| O=S(=O)(N[C@H]1CCCC[C@@H]1O)c1ccc(F)c(Br)c1 | -11% | 1.34 |
| CC(=O)c1c[nH]c(C(=O)N2CCC[C@H]2c2ccc3c(c2)OCCCO3)c1 | -10% | 1.94 |
| O=C(Nc1cccc(C2OC(=O)N(Cc3cccc(Cl)c3)C2C(=O)NCc2ccccn2)c1)c1ccc(F)cc1 (stereo not drawn) | -6% | 0.77 |
| CCCS(=O)(=O)c1c(S(=O)(=O)CCC)c2cnccn2c1C(=O)c1ccc(Cl)cc1 | -7% | 0.61 |
| O=S(=O)(c1ccc(Cl)s1)N1CC[C@H](c2ncon2)C1 | -2% | 0.32 |
| COC(=O)c1nc(CCNC(=O)OCC(F)(F)F)sc1C | 5% | -0.74 |
| CC(C)[C@H](NC(=O)CN(C)CC(=O)NCC(F)(F)F)c1cccs1 | -6% | 0.75 |
| CC(=O)N1CC[C@H](CN(C)Cc2ccc(Cl)c(F)c2)C1 | -6% | 0.73 |
| Cc1ccc(C2CC(NCc3nnn(C)n3)C2)cc1 (stereo not drawn) | -7% | 0.66 |
| Cc1cc(NC(=O)[C@H](Oc2ccccc2F)c2ccccc2)no1 | -12% | 1.59 |
| CC(C)c1nnc(Cn2c(=O)c(Cl)cc3ccccc32)s1 | 1% | -0.08 |
| Cc1ccccc1OC[C@H](O)C(=O)N1CCN(C(=O)c2ccco2)CC1 | -1% | 0.09 |
| Clc1ccc([C@@H]2CN(Cc3nnsc3Cl)CCO2)cc1 | -6% | 0.63 |
| COc1ccc(NS(=O)(=O)c2cc(-c3cnn4c(C)cc(C)nc34)ccc2OC)c(C)c1 | -6% | 0.57 |
| O=C1N[C@H](c2ccccc2)C(=O)N2C[C@H](O)C[C@@H]12 | -6% | 0.79 |
| CONC(=O)NCCc1cc(C)cc(C)c1 | -2% | 0.44 |
| CC1CN(C(=O)c2nccc3ccccc23)C(C)CO1 (stereo not drawn) | 0% | 0.04 |
| Cc1ccc(NCc2ccc3n2[C@@H](C)CC3=O)cc1 | -4% | 0.51 |

| Structure (SMILES) | % Inhibition | Z score |
| --- | --- | --- |
| CCCNC(=O)NCCn1c(C)cnc1C1CCC1 | -23% | 2.64 |
| Cc1cc(C)n(C)c(=O)c1C(=O)NCc1nc(C(C)(C)C)cs1 | -5% | 0.95 |
| O=C1CC[C@@]2(CCN(C(=O)Nc3cccc(Cl)c3)C2)N1 | -8% | 1.16 |
| O=C(C1CCN(c2cc3c(nn2)CCC3)CC1)N1CCN(C(=O)[C@@H]2CCCO2)CC1 | 6% | -0.82 |
| CC1CN(C2CCC(c3ccccc3)CC2)CC(C)O1 (stereo not drawn) | -10% | 1.9 |
| CC(C)c1cc(N(C)CC(=O)Nc2sccc2C(N)=O)n[nH]1 | -9% | 1.38 |
| O=S(=O)(CCO)CCc1ncc(-c2ccccc2)o1 | -8% | 1.25 |
| O=C(NC(CO)CC1CCCC1)C1Cc2ccccc2O1 (stereo not drawn) | 5% | -0.48 |
| CCNc1ccc(Cl)cc1C(=O)N1C[C@H]2CN(C)C[C@H]2C1 | 0% | 0.05 |
| CCCCn1c(C(=O)NCC(C)C)cc2cc(NC(=O)c3ccc(F)cc3)ccc21 | 0% | -0.05 |
| CCn1nc(C2CC2)cc1C(=O)N(C)c1nsc2ccccc12 | 7% | -1.08 |
| CC1CCN(c2nc(N3CCC(C)CC3)nc(N3CC4CC(C3)c3cccc(=O)n3C4)n2)CC1 (stereo not drawn) | -5% | 0.7 |
| CCc1cc(N2CCC[C@H](c3nnc(CN4CCCC4)n3C)C2)nc(C)n1 | 2% | -0.47 |
| Cn1c(=O)c2c(nc(NCCc3ccc(O)cc3)n2Cc2ccc(Cl)cc2Cl)n(C)c1=O | -8% | 1.25 |
| Cc1ccccc1NC(=O)Cn1cnc2c(NC(C)C)ncnc21 | -18% | 2.23 |
| COc1cc2c(cc1OC)[C@@H](NC(=O)c1cc(C(C)(C)C)[nH]n1)CC2 | 4% | -0.53 |
| CCn1ncnc1[C@H](C)NC(=O)c1cccc(C(C)=O)c1 | -20% | 2.6 |
| C[C@H](CC(=O)O)CC(=O)NCCC1=CCCCC1 | -11% | 2.08 |
| C[C@H]1CCCN(S(=O)(=O)NCCc2cnn(-c3ccccc3)c2)C1 | -11% | 0.99 |
| CN(C)c1noc(CN2CC(O)C(O)C2)n1 (stereo not drawn) | -12% | 1.8 |
| CCCc1nsc(NC(=O)N2CCC[C@@H]2CCCO)n1 | -16% | 3.12 |

| Structure (SMILES) | % Inhibition | Z score |
| --- | --- | --- |
| Cc1ccc(CC(=O)N(C[C@H]2CN(C)CCO2)c2nccs2)cc1 | 2% | -0.21 |
| CN(C)S(=O)(=O)n1cc(/C=C(\NC(=O)c2ccccc2F)C(=O)NC2CC2)c2ccccc21 | -12% | 1.26 |
| Cc1ccc(C)c(/N=C(\NCCc2c(C)nn(C)c2C)NC(=O)c2cccc(F)c2)c1 | -1% | 0.22 |
| O=C(Nc1cc2c(cc1NC(=O)c1cccs1)OCCO2)c1cccc(C(F)(F)F)c1 | -4% | 0.8 |
| CC(C)c1ocnc1C(=O)N[C@@H](C)c1cccc(-n2cccn2)c1 | 0% | 0.06 |
| C[C@H]1CCCN(Cc2ccc3ncccc3c2)C1 | 1% | -0.19 |
| CC(C)(C)OC(=O)N1CCN(CC(=O)N2CCNC(=O)C2)C2(CCCCC2)C1 | 0% | 0.01 |
| O=c1c2cnccc2ncn1CCC[C@H]1CCOC1 | -14% | 1.55 |
| COc1ccc(OC)c(NC(=O)[C@@H]2CCN(S(C)(=O)=O)c3ccccc3O2)c1 | 8% | -1.04 |
| Cc1cc(C)n(S(=O)(=O)c2ccc3c(c2)OCCO3)n1 | 39% | -5.7 |
| CCN1CC(NC(=O)N2Cc3cccnc3N3CCC[C@@H]3C2)CC1=O (stereo partly drawn) | -4% | 0.54 |
| COCc1ccc(COC(=O)C[C@@H](CN)CC(C)C)cc1 | 1% | -0.13 |
| O=C1O[C@]2(CCCN(S(=O)(=O)c3ccccc3)C2)c2ccccc21 | -14% | 2.75 |
| CCC[C@H]1CN(C(=O)Cn2cc(C)cn2)C[C@@H]1N | -1% | 0.18 |
| CC(C)(C)Oc1cc(C(=O)NCc2ccco2)ccn1 | -4% | 0.68 |
| O=C(Nc1ccnc2ccnn12)[C@H]1CC(=O)N(C2CCCCCC2)C1 | -11% | 1.08 |
| CN(Cc1cnn2cccnc12)CC1(N2CCOCC2)CCCCC1 | -7% | 1.3 |
| Cc1nn(CCCNC(=O)[C@H](O)c2cccc(Cl)c2)c(C)c1C | -13% | 1.25 |
| COCCC1(NS(=O)(=O)c2ccccc2)CCN(CC2CC2)CC1 | 5% | -0.68 |
| C=C(C)CC(C)C(=O)NCC1CCc2cccnc21 (stereo not drawn) | -4% | 0.51 |
| Cc1nccc(C(=O)Nc2ccc(-n3cncn3)cn2)n1 | 0% | -0.04 |

| Structure (SMILES) | % Inhibition | Z score |
| --- | --- | --- |
| CCC(C)NC(=O)c1coc(CN(Cc2ccc(C)cc2C)C(C)C(C)C)n1 (stereo not drawn) | -12% | 1.36 |
| COc1ccc(CN2CCC(N3CCOCC3)CC2)cn1 | -17% | 1.72 |
| Cc1nc(C)c(S(=O)(=O)NC2CC(C)N(c3ccccc3)C2=O)s1 (stereo not drawn) | -8% | 1.63 |
| Cc1c(N[C@@H](C)c2cc(Cl)ccc2O)c(=O)n(-c2ccccc2)n1C | 9% | -1.13 |
| CCCc1nnc2c(=O)n(CC(=O)Nc3ccc(C)c(C)c3)c3ccccc3n12 | -13% | 1.46 |
| COc1cccc2cc(-c3ccnc(N)n3)oc12 | -1% | 0.07 |
| C[C@H]1COc2ccccc2N1CCn1cncn1 | -7% | 1.02 |
| O=C(c1ccc(C(=O)N2CCN(c3ccccc3F)CC2)nc1)N1CCN(c2ccccc2F)CC1 | -3% | 0.41 |
| O=C(COc1ccccc1)N1CC[C@H](c2nc(C3CCOCC3)no2)C1 | 33% | -0.96 |
| Cc1ccc(C(=O)NCc2ccccn2)cc1S(=O)(=O)N1CCN(C)CC1 | 14% | -1.99 |
| CCO[C@H]1COCC[C@@H]1NC(=O)c1cccc(-n2cnnc2)n1 | -13% | 1.64 |
| N#Cc1ccc(OCc2noc(-c3cccs3)n2)cc1 | 9% | -1.07 |
| COc1cccc2c1O[C@@H](C)C(=O)N(C1CC1)C2 | -11% | 1.24 |
| COc1ccsc1S(=O)(=O)N1CCN(c2ncns2)CC1 | -5% | 0.57 |
| O=c1cc(-c2ccccc2)n2c(nc3ccccc32)[nH]1 | 22% | -2.5 |
| CCOC(=O)c1cccc(N2C(=O)Cn3cccc3C2C(=O)NC2CCCCC2C)c1 (stereo not drawn) | -16% | 2.06 |
| COc1ccc2c(c1)N(C(=O)c1cccnc1)CCCC2 | -7% | 1.3 |
| CC1CN(C(=O)c2ccc3c(c2)OCO3)OC(c2cccnc2)O1 (stereo not drawn) | 4% | -0.47 |
| CS(=O)(=O)N1CC[C@@]2(CCCN(CCc3ccccc3)C2)C1 | -1% | 0.09 |
| Cn1c(CN2CCCC2)nnc1C1CCN(S(=O)(=O)C2CC2)CC1 | 4% | -0.58 |
| CS(=O)(=O)c1ccc(CN2C[C@@H]3C[C@H]2C(=O)NC[C@H]2O[C@H](CCOc4cc(-c5ccccc5)ccc4C(=O)N3)CC[C@@H]2O)cc1 | -2% | 0.26 |
